The record followed here is PMC5892938.

The other results are listed elsewhere or left out. At the low end of the ranking the order means little.

This experiment has as its target GST-SBP-SLBP (stem-loop binding protein) (UniProt Q14493). In words: targeted RNA Bind-n-Seq.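 Note: DESeq read counts versus GST-SBP nonspecific binding control pulldown.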 The settings on record: RBNS binding buffer: 25 mM Tris pH 7.5, 150 mM KCl, 3 mM MgCl2, 0.1% Tween, 0.5 mg/mL BSA, 1 mM DTT; 27 nM protein, 750 pM RNA pool; temperature not stated; high values mean tight binding.
For the sequence “GGUCACGUCUCAAUCAACUCAAGUCCCAGGGAAACCCCUGGCAUAUUCAACAGCUCGCAGUCAAG”, the binding signal (log2 fold change) was -0.146.

On to “GGUCACGUCUCAAUCAACUCAUCCUCAGGAGUUUUCUCCUGCAAAUUCAACAGCUCGCAGUCAAG”, for which the binding signal (log2 fold change) came to 0.14.

For the sequence “GGUCACGUCUCAAUCAACUCAGUCCCAGGAGUUUACUCCUGCUUUUUCAACAGCUCGCAGUCAAG”, the binding signal (log2 fold change) is -0.0813.

With “GGUCACGUCUCAAUCAACUCCUAAGAGGGGGGGAAAACCCCUUUGCCCUCACCGUCAACAGCUCGCAGUCAAG”, the binding signal (log2 fold change) is 0.325.

Turning to “GGUCACGUCUCAAUCAACUCUACUUCCAGGGAAAUCCCUGGUAAACUCAACAGCUCGCAGUCAAG”, the binding signal (log2 fold change) was determined as 0.283.

In the case of “GGUCACGUCUCAAUCAACUCUUUUCCCAGGGAAACCCCUGGCAAUCUCAACAGCUCGCAGUCAAG”, the binding signal (log2 fold change) was determined as 0.113.

In the case of “GGUCACGUCUCAAUCAACUCAUUUUCCAGGGAAAACCCUGGUUAUUUCAACAGCUCGCAGUCAAG”, the binding signal (log2 fold change) was -0.0884.

As to “GGUCACGUCUCAAUCAACUCUUCGUCAGGAGUUUACUCCUGCUUAUUCAACAGCUCGCAGUCAAG”, the binding signal (log2 fold change) was determined as 0.0746.

Take “GGUCACGUCUCAAUCAACUCUUCCUCCAGGGAAACCCCUGGCUUUCUCAACAGCUCGCAGUCAAG”: the binding signal (log2 fold change) was -0.0547.

Consider “GGUCACGUCUCAAUCAACUCAUUUCCAGGAGUUUCCUCCUGUUAUUUCAACAGCUCGCAGUCAAG”, for which the binding signal (log2 fold change) was -0.146.

With “GGUCACGUCUCAAUCAACUCAAUUCCCAGGGAAAACCCUGGUUUUCUCAACAGCUCGCAGUCAAG”, the binding signal (log2 fold change) is -0.179.

With “GGUCACGUCUCAAUCAACUCAGUCCCAGGAGUUUUCUCCUGUUUAUUCAACAGCUCGCAGUCAAG”, the binding signal (log2 fold change) turned out to be 0.0385.

“GGUCACGUCUCAAUCAACUCCCAAGAGGGGGGGAAAACCCCUUUACCCUCCAACUCAACAGCUCGCAGUCAAG”: the binding signal (log2 fold change) is -0.116.

Take “GGUCACGUCUCAAUCAACUCCCAAGAGGGGGGGAAAACCCCUUUGCCCUCGAUAUCAACAGCUCGCAGUCAAG”: the binding signal (log2 fold change) was determined as 0.0882.

Turning to “GGUCACGUCUCAAUCAACUCAUCCCCAGGAGUUUACUCCUGCUAACUCAACAGCUCGCAGUCAAG”, the binding signal (log2 fold change) came out at 0.154.

Consider “GGUCACGUCUCAAUCAACUCUACUUCCAGGGAAAGCCCUGGCAAAUUCAACAGCUCGCAGUCAAG”, for which the binding signal (log2 fold change) is -0.00473.

With “GGUCACGUCUCAAUCAACUCUUUCCCCAGGGAAAACCCUGGUUAAUUCAACAGCUCGCAGUCAAG”, the binding signal (log2 fold change) is -0.0188.

As to “GGUCACGUCUCAAUCAACUCUUCCUCAGGAGUUUACUCCUGCAUUUUCAACAGCUCGCAGUCAAG”, the binding signal (log2 fold change) was -0.00484.

For “GGUCACGUCUCAAUCAACUCAGUCCCCAGGGAAAUCCCUGGCUAAUUCAACAGCUCGCAGUCAAG”, the binding signal (log2 fold change) was -0.0492.

With “GGUCACGUCUCAAUCAACUCUUUCCCCAGGGAAAGCCCUGGCAAUUUCAACAGCUCGCAGUCAAG”, the binding signal (log2 fold change) is 0.128.

“GGUCACGUCUCAAUCAACUCUUCGCCAGGAGUUUUCUCCUGUAAUUUCAACAGCUCGCAGUCAAG”: the binding signal (log2 fold change) is 0.154.

For the sequence “GGUCACGUCUCAAUCAACUCUACUCCCAGGGAAAGCCCUGGUUAAUUCAACAGCUCGCAGUCAAG”, the binding signal (log2 fold change) was -0.228.

In the case of “GGUCACGUCUCAAUCAACUCUUUCCCAGGAGUUUCCUCCUGCAUUCUCAACAGCUCGCAGUCAAG”, the binding signal (log2 fold change) is 0.248.

Take “GGUCACGUCUCAAUCAACUCUUCCUCCAGGGAAAUCCCUGGCUAUCUCAACAGCUCGCAGUCAAG”: the binding signal (log2 fold change) is -0.21.

With “GGUCACGUCUCAAUCAACUCAUCGCCAGGAGUUUCCUCCUGUAAACUCAACAGCUCGCAGUCAAG”, the binding signal (log2 fold change) came out at 0.13.

“GGUCACGUCUCAAUCAACUCAGUUCCCAGGGAAAUCCCUGGCUUAUUCAACAGCUCGCAGUCAAG”: the binding signal (log2 fold change) was -0.102.

Take “GGUCACGUCUCAAUCAACUCAUUUCCCAGGGAAACCCCUGGUUUUUUCAACAGCUCGCAGUCAAG”: the binding signal (log2 fold change) was -0.0766.

As to “GGUCACGUCUCAAUCAACUCUUCUUCAGGAGUUUCCUCCUGCUAACUCAACAGCUCGCAGUCAAG”, the binding signal (log2 fold change) is 0.14.

Turning to “GGUCACGUCUCAAUCAACUCUUUUUCAGGAGUUUUCUCCUGUUAAUUCAACAGCUCGCAGUCAAG”, the binding signal (log2 fold change) came to 0.0606.

For “GGUCACGUCUCAAUCAACUCUUUCCCCAGGGAAAUCCCUGGCAUACUCAACAGCUCGCAGUCAAG”, the binding signal (log2 fold change) stood at 0.0536.

For the sequence “GGUCACGUCUCAAUCAACUCUUCUCCCAGGGAAAACCCUGGUUUAUUCAACAGCUCGCAGUCAAG”, the binding signal (log2 fold change) is -0.146.

As for “GGUCACGUCUCAAUCAACUCAUACGAGGGGGGGAAAACCCCUUUACCCUCUACAUCAACAGCUCGCAGUCAAG”, the binding signal (log2 fold change) is -0.065.

Turning to “GGUCACGUCUCAAUCAACUCUUCAGAGGGGGGGAAAACCCCUUUACCCUCACAUUCAACAGCUCGCAGUCAAG”, the binding signal (log2 fold change) was found to be 0.118.

“GGUCACGUCUCAAUCAACUCUUCGGAGGGGGGGAAAACCCCUUUACCCUCAACAUCAACAGCUCGCAGUCAAG”: the binding signal (log2 fold change) was -0.515.

As for “GGUCACGUCUCAAUCAACUCAACAGAGGGGGGGAAAACCCCUUUACCCUCGAAUUCAACAGCUCGCAGUCAAG”, the binding signal (log2 fold change) is -0.27.

Take “GGUCACGUCUCAAUCAACUCUAUCCCAGGAGUUUCCUCCUGUAAUCUCAACAGCUCGCAGUCAAG”: the binding signal (log2 fold change) is 0.0738.

On to “GGUCACGUCUCAAUCAACUCUAUCCCAGGAGUUUCCUCCUGCAUAUUCAACAGCUCGCAGUCAAG”, for which the binding signal (log2 fold change) amounted to 0.157.
